Assay results: PubChem BioAssay AID894 (National Center for Advancing Translational Sciences (NCATS), 2007)
Screen size: about 150,000 compounds; about 6,500 (4.3%) were called active. The inconclusive results got no clear call from the source; some entries with a clear call stand among them for comparison. Calls come from the whole dose curve; as a rule, active = well fitted inhibition curve with a large enough effect (not every such curve was filed as active); inconclusive = small, poorly fitted or top-dose-only effect, or another doubt; inactive = no such curve, though single readings can be large or run the other way. Where the call is inconclusive, the potency comes from a doubtful curve fit.

Molecular target: 15-hydroxyprostaglandin dehydrogenase [NAD(+)] (Homo sapiens) (UniProt P15428)
Experiment: qHTS Assay for Inhibitors of HPGD (15-Hydroxyprostaglandin Dehydrogenase)
Conditions: purified HPGD, NADH fluorescence kinetic, PGE2 substrate; activity change, negative = inhibition: stronger effect = lower value
Outline: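 20 nM HPGD preincubated 15 min at room temperature with compound in 50 mM Tris-HCl pH 8, 0.01% Tween 20. Started with 1 mM NAD+ and 30 uM prostaglandin E2; NADH fluorescence (360/450 nm) read 5 times over 30-s intervals, last minus first.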
% is set by controls: 0 for no effect and ±100 for the full control effect; potency is the fitted concentration of half-maximal effect; tags give direction and shape of the fitted curve.

Sequence of UniProt P15428 (P15428 whole entry, looked up): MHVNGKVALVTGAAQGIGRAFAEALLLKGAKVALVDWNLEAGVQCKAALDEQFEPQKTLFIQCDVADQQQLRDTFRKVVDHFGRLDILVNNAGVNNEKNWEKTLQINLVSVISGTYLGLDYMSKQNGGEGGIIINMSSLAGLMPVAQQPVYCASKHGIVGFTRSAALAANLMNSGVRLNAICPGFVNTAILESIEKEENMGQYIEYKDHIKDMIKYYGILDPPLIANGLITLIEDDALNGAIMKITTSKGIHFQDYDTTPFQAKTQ

Potency, active:
COc1ccc(CC(=O)Nc2ccc(S(=O)(=O)NCC3CCCO3)cc2)cc1 (stereo not drawn) 22.4 µM, CCCC(=O)NCc1cc(-c2nn(C)c(=O)c3ccccc23)ccc1C 17.8 µM, Oc1c(C=Nc2cccc3nsnc23)ccc2ccccc12 25.1 µM, Cc1[nH]c2ccccc2c1SCCNC(=O)c1ccc(Br)o1 14.1 µM, O=C(O)c1ccc(COc2ccccc2C=C2C(=O)c3ccccc3C2=O)cc1 10 µM, CC(=O)N1CCC(=NNC(=O)CSc2cc(C)c(Br)cc2C)CC1 25.1 µM, COc1cc(C(=S)N2CCC(C)CC2)ccc1O 14.1 µM, O=C(Nc1ccc(Cl)cc1F)c1ccccc1Br 15.8 µM, CC(NC(=O)c1cc2c(s1)CCCC2)C(C)(C)C (stereo not drawn) 14.1 µM, Cc1ccc(NNS(=O)(=O)c2ccc(C)cc2)cc1 3.98 µM, C(=N\Nc1ccccc1)/c1ccc(N2CCOCC2)cc1 14.1 µM, O=C(C1COc2ccccc2O1)N1CCCC1 (stereo not drawn) 12.6 µM, COc1ccc(Cl)cc1Nc1cc(C)nc2nc(C)nn12 3.55 µM, CCN1C(=O)CC(N2CCN(c3ccc(C(=O)c4ccccc4)cc3)CC2)C1=O (stereo not drawn) 22.4 µM, O=C(NC1CC1)c1sc2cc([N+](=O)[O-])ccc2c1Cl 25.1 µM

Potency, inconclusive:
O=c1oc2cc(OCc3nn[nH]n3)ccc2c2c1CCCC2 28.2 µM [inhibitor, partial curve], Cc1cnc(CNc2ncncc2-c2ccccc2C(F)(F)F)cn1 28.2 µM [inhibitor, partial curve], Brc1ccc(-c2nc3ccccc3s2)s1 39.8 µM [inhibitor, partial curve], COC(=O)c1ccccc1NC(=O)C1CCN(S(=O)(=O)c2cc(OC)ccc2OC)CC1 35.5 µM [inhibitor, partial curve], COc1cccc(/C=C/C(=O)OCC(=O)NCC2CCCO2)c1 (stereo not drawn) 31.6 µM [inhibitor, partial curve], CCOC(=O)c1[nH]c2ccccc2c1NC(=O)Nc1ccc(OC)cc1 31.6 µM [inhibitor, partial curve], CCCn1c(-c2ccc(F)cc2)nc2c(N3CCC(N(C)C)C3)nc(C)nc21 (stereo not drawn) 31.6 µM [inhibitor, partial curve], COc1ccc(C(C)=O)cc1CSc1nc2cc(C(=O)O)ccc2c(=O)n1Cc1ccccc1 28.2 µM [inhibitor, partial curve], COC(=O)C1=CN(C)C=C(C(=O)OC)C1c1ccsc1 28.2 µM [inhibitor, partial curve], c1ccc(-c2nc3ccccc3c3nc4ccccc4n23)cc1 17.8 µM [inhibitor, partial curve], Cc1ccc(NS(=O)(=O)c2cccc(C(=O)N/N=C/c3ccc4c(c3)OCCO4)c2)c(C)c1 28.2 µM [inhibitor, partial curve], CCOCCCNC(=O)c1ccccc1SCC 28.2 µM [inhibitor, single point], Oc1ccc(C2Nc3cccc4cccc(c34)N2)c(O)c1 31.6 µM [inhibitor, partial curve], O=C(CSc1nnc(Cc2ccccc2)n1Cc1ccco1)NC12CC3CC(CC(C3)C1)C2 22.4 µM [inhibitor, partial curve, poor fit], COC(=O)c1nc(NC(=O)c2ccccc2)n[nH]1 28.2 µM [inhibitor, single point], COC(=O)Cc1c(C)c2ccc(OCC(=O)N(C)C)cc2oc1=O 14.1 µM [inhibitor, partial curve], Cc1cn(C(=O)c2ccccc2)c(=S)n1-c1ccc(Cl)cc1 28.2 µM [inhibitor, single point], CCOC(=O)/C(C#N)=C/Nc1cc(OC)ccc1OC 31.6 µM [inhibitor, partial curve], CCN(CC)c1ccc(-n2cc3c(=O)n(C)c(=O)n(C)c3c2)cc1 28.2 µM [inhibitor, partial curve], CNC(=O)/C(C#N)=C/c1c(N2CC(C)OC(C)C2)nc2ccccn2c1=O (stereo not drawn) 25.1 µM [inhibitor, partial curve], COc1cc2nc(NCCCN3CCN(C)CC3)n3nc(-c4ccccc4)nc3c2cc1OC 25.1 µM [inhibitor, partial curve], Cc1nc2ccc(NC(=O)N3CCSCC3)cc2nc1C 15.8 µM [inhibitor, single point], COc1cc2c(cc1OC)C(C(C)C)=NC(C)(C)C2 28.2 µM [inhibitor, partial curve], Cc1cc(C)nc(Nc2nc(C)c3cc4c(cc3n2)OCO4)n1 31.6 µM [inhibitor, partial curve], O=c1cc(CN2CCN(c3ccccc3O)CC2)nc2sccn12 22.4 µM [inhibitor, partial curve], COc1ccc(-n2c(SCC(=O)Nc3ccc(C(=O)O)cc3)nnc2-c2cccs2)cc1 31.6 µM [inhibitor, single point], COc1ccc2[nH]c(=O)c(C(c3nnnn3CC3CCCO3)N3CCc4ccccc4C3)cc2c1 (stereo not drawn) 31.6 µM [inhibitor, single point], CCc1ccc(-c2c(C)sc(NC(C)=O)c2C(N)=O)cc1 17.8 µM [inhibitor, partial curve], CCOC(=O)c1cc2c(s1)-c1c(C)cccc1OC2 31.6 µM [inhibitor, partial curve], COC(=O)c1ccc2c(=O)n(CCCCCC(=O)O)c(=O)[nH]c2c1 28.2 µM [inhibitor, partial curve], Cc1ccccc1OCC(O)Cn1c2ccccc2c2ccccc21 (stereo not drawn) 39.8 µM [inhibitor, single point], COc1ccc(-c2nc(C#N)c(NCC3CCCO3)o2)cc1OC (stereo not drawn) 25.1 µM [inhibitor, partial curve], N#Cc1nc(-c2ccc(OCc3ccccc3)cc2)oc1NCc1ccco1 31.6 µM [inhibitor, partial curve], COc1ccc(-n2ncc3c(NCC4CCCO4)ncnc32)cc1 (stereo not drawn) 6.31 µM [inhibitor, partial curve], O=C(CN1C(=O)COc2ccccc21)NCCCN1CCc2ccccc2C1 35.5 µM [inhibitor, single point], NC(=O)c1nn(-c2ccccc2)nc1N 3.16 µM [inhibitor, full curve], Cn1c2ccccc2c2c(C(=O)N3CCN(C(=O)c4ccco4)CC3)cn(C3CCCCC3)c(=O)c21 28.2 µM [inhibitor, partial curve], CCCCn1nc2cc(C(=O)NCc3ccccc3)ccc2c1OCC 28.2 µM [inhibitor, partial curve], O=C(Nc1ccc2c(c1)OCO2)c1cccc(Cl)c1 17.8 µM [inhibitor, partial curve]

Activity change, negative = inhibition, inactive:
CCc1ccc(NC(=O)N(CCCN2CCOCC2)C(C)c2cc3cccc(OC)c3o2)cc1 (stereo not drawn) -14.8%, COc1ccc(NC(=O)Cn2ncc(Cl)c(Cl)c2=O)cc1S(=O)(=O)N1CCOCC1 -3.71%, CN(C(=S)Nc1cccnc1)c1ccc(O)cc1 -8.44%, COc1cc(/C=C/C(=O)O)ccc1OCc1ccccc1C#N -29.3%, COc1ccc(S(=O)(=O)N2CCCC(C(=O)NCCC3=CCCCC3)C2)cc1 (stereo not drawn) -7.2%, Cn1c(SCC(=O)NNC(=O)Cc2ccccc2)nnc1-c1ccccc1 -14.6%, COc1ccccc1-c1nc(-c2ccccn2)no1 -22.8%, COCCSc1ccccc1C(=O)Nc1ccc(Cl)cn1 1.98%, CCOc1ccccc1N(CC(=O)NC(C)(C)C)C(=O)Cn1nnc(-c2ccc(C)o2)n1 -5.66%, O=C(NCCC1=CCCCC1)C1CCCN(S(=O)(=O)c2ccccc2)C1 (stereo not drawn) -15.2%, CC(C)C[C@@H](CC(=O)N[C@H](CC(=O)N[C@@H]1CCCC[C@H]1C(=O)N[C@H](CC(=O)N[C@@H](CCC(=O)O)CC(=O)O)CC(C)C)C(C)C)NC(=O)[C@@H]1CNCC[C@H]1N -2.89%, Cc1nn(Cc2ccc(Cl)cc2Cl)c(C)c1NC(=O)NC12CC3CC(CC(C3)C1)C2 -10.8%, CCCCOc1cccc(C2C(C(=O)c3cccs3)=C(O)C(=O)N2Cc2cccnc2)c1 (stereo not drawn) -11.2%, CC(C)NC(=S)N/N=C1\CCCCc2ccccc21 -10.4%, CCOc1ccccc1N1CC(C(=O)Nc2ccccc2N2CCOCC2)CC1=O (stereo not drawn) 2.77%, COc1ccc(CC(=O)c2ccc(OC)c(OC)c2)cc1 -17.3%, Cc1ccccc1C1CC(=O)Oc2ccc(C(C)(C)C)cc21 (stereo not drawn) -4.11%, CS(=O)(=O)N1CCN(c2ccccc2NC(=O)c2ccc(Br)o2)CC1 -6.91%, CC(=O)OC1C=C[C@]2(C)C(CC(OC(C)=O)[C@@]3(C)C4=CC(=O)OC(c5ccoc5)[C@]4(C)CCC23)C1(C)C (stereo partly drawn) -7.09%
